Measurements taken from PubChem BioAssay AID1030 (National Center for Advancing Translational Sciences (NCATS), 2008).
Among all 220,000 compounds or so, about 16,000 (7.3%) were called active. Inconclusive results, whose numbers are uncertain, are shown with a selection of clear calls. Calls come from the whole dose curve; as a rule, active = well fitted inhibition curve with a large enough effect (not every such curve was filed as active); inconclusive = small, poorly fitted or top-dose-only effect, or another doubt; inactive = no such curve, though single readings can be large or run the other way. Potencies beside an inconclusive call are fits to weak or partial responses and may not hold up.

target: Aldehyde dehydrogenase 1A1 (Homo sapiens) (UniProt P00352); experiment: qHTS Assay for Inhibitors of Aldehyde Dehydrogenase 1 (ALDH1A1); conditions: Purified ALDH1A1, NADH fluorescence, propionaldehyde substrate; series mostly up to 75.3 µM; activity, negative = inhibition: at the top concentration;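 for activity, negative = inhibition: plate controls were no enzyme wells and a reference inhibitor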
Chain of UniProt P00352 (P00352 whole entry, looked up): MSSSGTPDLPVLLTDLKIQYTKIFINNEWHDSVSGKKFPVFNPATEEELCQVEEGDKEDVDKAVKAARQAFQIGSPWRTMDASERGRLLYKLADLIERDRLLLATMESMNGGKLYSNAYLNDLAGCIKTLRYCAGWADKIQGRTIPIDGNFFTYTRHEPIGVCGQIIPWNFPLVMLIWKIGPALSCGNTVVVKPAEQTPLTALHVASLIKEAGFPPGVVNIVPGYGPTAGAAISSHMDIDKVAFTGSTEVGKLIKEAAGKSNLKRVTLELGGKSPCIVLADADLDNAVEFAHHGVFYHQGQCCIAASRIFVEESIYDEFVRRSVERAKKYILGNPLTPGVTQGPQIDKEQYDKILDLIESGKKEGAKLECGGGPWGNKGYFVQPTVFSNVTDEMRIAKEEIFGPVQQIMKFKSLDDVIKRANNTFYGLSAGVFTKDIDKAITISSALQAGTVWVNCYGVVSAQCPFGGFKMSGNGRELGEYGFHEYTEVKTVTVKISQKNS
Potency is the fitted concentration of half-maximal effect; tags give direction and shape of the fitted curve.

Potency, inconclusive:
CC(C)NC(=O)c1ccccc1NC(=O)Cc1ccc([N+](=O)[O-])cc1 37.7 µM [inhibitor, single point]
COC(=O)c1cc(C(=O)OC)cc(N2C(=O)CN=C2Nc2nc(C)cc(C)n2)c1 6.31 µM [inhibitor, single point]
COc1ccccc1-c1nnc(-c2ccc(N3CCOCC3)cc2)o1 35.5 µM [inhibitor, partial curve]
Cc1cccc(OCCNC(=S)NC(=O)c2cccnc2)c1 39.8 µM [inhibitor, single point]
CCOc1ccccc1-c1nc2c([nH]1)c(=O)n(C)c(=O)n2C 28.2 µM [inhibitor, partial curve]
CCS(=O)(=O)N1CCC(C(=O)NCCc2ccc(C)cc2)CC1 31.6 µM [inhibitor, single point]
CC1CCN(CCCn2c(SCC(=O)Nc3ccccc3Cl)nc3ccccc3c2=O)CC1 44.7 µM [inhibitor, single point]
O=C(O)CCc1ccc(-c2ccc(Br)cc2)n1CC(=O)O 35.5 µM [inhibitor, single point]
CCCCS(=O)c1snnc1C (centres undefined) 39.8 µM [inhibitor, single point]
Cc1[nH]c2ccccc2c1Cc1nnc(SCC(=O)NCc2ccco2)o1 39.8 µM [inhibitor, single point]
COC(=O)C(O)(CC(=O)Nc1cccc(SC)c1)C(F)(F)F (centres undefined) 44.7 µM [inhibitor, single point]
CNC(=O)c1cc2cc(OC)ccc2oc1=O 28.2 µM [inhibitor, partial curve]
CCOC(=O)C1/C(=N\O)CC(C)(O)C(C(=O)OCC)C1c1ccc(N(C)C)cc1 (centres undefined) 39.8 µM [inhibitor, single point]

Potency, active:
Cc1c(Cl)ccc2c1NC(=O)C21NC(CCC(N)=O)[C@H]2C(=O)N(c3ccc(Cl)cc3)C(=O)[C@H]21 (some centres undefined) 8.91 µM
COc1cccc(-c2ccc(SCC(=O)N3CCc4ccccc43)nn2)c1 20 µM
Cc1ccc(C(C(=O)NCC2CCCO2)N(Cc2ccccc2)C(=O)c2ccc(-c3ccccc3)[nH]2)o1 (centres undefined) 22.4 µM

activity, negative = inhibition, inactive:
O=C(Nc1nnc(SCC(=O)N2CCOCC2)s1)c1ccccc1 -7.42%
O=C(NCc1n[nH]c(=S)n1-c1ccc(Br)cc1)c1ccc(S(=O)(=O)N2CCOCC2)cc1 -10.2%
COC(=O)N1CCC2(CCCN(c3ccccn3)C2)CC1 -90.8%
